# The whole screen tested about 310,000 compounds, of which about 2,200 (0.71%) showed an effect of 50% or more. The effect is printed as a negative number. Some of the results follow.
# Target: human ether-à-go-go-related gene (hERG) potassium channel (human, UniProt Q12809)
# Assay: primary screen, population patch clamp on CHO cells stably expressing hERG
# Chain of human ether-à-go-go-related gene (hERG) potassium channel (Q12809 whole entry, looked up): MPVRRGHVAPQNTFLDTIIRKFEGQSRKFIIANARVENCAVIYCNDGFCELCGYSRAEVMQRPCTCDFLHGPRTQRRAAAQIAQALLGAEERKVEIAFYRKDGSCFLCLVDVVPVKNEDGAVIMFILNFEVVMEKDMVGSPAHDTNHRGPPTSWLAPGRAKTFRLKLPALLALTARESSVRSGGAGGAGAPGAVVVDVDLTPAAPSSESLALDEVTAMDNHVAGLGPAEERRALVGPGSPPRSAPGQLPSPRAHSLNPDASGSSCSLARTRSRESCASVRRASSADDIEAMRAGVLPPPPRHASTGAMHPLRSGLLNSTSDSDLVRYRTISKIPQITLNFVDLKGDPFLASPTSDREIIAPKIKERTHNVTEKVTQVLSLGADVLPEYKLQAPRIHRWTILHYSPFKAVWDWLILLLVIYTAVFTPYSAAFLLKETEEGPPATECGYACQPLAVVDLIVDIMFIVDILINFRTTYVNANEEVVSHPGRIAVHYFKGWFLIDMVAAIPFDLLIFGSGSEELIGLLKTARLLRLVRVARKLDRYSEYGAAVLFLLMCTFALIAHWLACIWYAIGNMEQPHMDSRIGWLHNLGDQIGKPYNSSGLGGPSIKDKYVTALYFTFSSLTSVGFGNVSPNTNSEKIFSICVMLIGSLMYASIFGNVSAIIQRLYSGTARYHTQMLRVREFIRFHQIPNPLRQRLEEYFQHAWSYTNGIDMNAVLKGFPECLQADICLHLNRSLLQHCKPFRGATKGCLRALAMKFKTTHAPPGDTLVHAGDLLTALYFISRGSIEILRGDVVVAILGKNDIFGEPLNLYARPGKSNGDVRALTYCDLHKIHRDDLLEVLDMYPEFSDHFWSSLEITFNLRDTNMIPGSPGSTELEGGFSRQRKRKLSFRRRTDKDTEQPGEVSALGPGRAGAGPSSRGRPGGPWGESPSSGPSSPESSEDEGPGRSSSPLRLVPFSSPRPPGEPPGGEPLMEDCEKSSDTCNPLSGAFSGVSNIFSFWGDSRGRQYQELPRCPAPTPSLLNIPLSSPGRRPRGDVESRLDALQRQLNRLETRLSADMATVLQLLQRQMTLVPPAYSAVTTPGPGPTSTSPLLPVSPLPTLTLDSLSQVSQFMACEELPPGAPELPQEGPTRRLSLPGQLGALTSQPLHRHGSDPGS
row,Structure (SMILES),"hERG current change (%, negative = inhibition) at 1uM [%]"
1,Cc1ccc2cc(CN(Cc3cccs3)C(=O)c3ccco3)c3nnnn3c2c1C,6.65
2,COc1cc2c(cc1OC)C(C)N(CCc1ccc(Cl)cc1)CC2.O=C(O)/C=C\C(=O)O (centres unmarked),-39.9
3,COCCCC1CCN(C(=O)C2CCC(=O)N(CCc3ccccc3)C2)CC1 (centres unmarked),-8.93
4,Cc1ccc2nc(-c3ccc(-c4cccc(Cl)c4)cc3)c(NCc3ccccc3)n2c1.O=C(O)C(F)(F)F,5.81
5,Cc1ccc(-n2ncc(C#N)c2/N=C/N2CCN(C)CC2)cc1,7.11
6,CCC(=O)OC1(C)C(=O)C=C2C=C(CCCC(=O)OC)OC=C2C1=O (centres unmarked),5.9
7,COc1cc(CN2CCCC(C(=O)c3sccc3C)C2)cc(Cl)c1O (centres unmarked),5.65
8,COc1ccc(S(=O)(=O)N2CCCC2CNC(=O)C(=O)NCc2ccco2)cc1 (centres unmarked),10.7
9,COC(=O)[C@@]1(Cc2ccc(F)cc2)[C@H]2c3cc(C(=O)N(C)C)n(Cc4ccccn4)c3C[C@H]2CN1C(=O)c1ccccc1,9.55
10,CCc1ccccc1NC(=O)CNC(=O)c1cc(C2CC2)nn1-c1ccccc1,4.19
11,O=C(Nc1cccc(F)c1)NC1CCCCC1,13.7
12,CCOC(=O)c1[nH]c(C)c(C(=O)OCC(=O)NC(=O)NC(C)(C)C)c1C,19.7
13,Cc1ccc(Cl)cc1N1CCN(CC(O)COC(C)C)CC1.Cl (centres unmarked),-44.6
14,CC(C)Cc1cc(C(C)(C)C)ccc1OC(=S)N(C)C,15.1
15,CCCCc1c(O)nc2sccn2c1=O,5.53
16,CN(C(=O)C1CCOC1)c1nnc(-c2ccccn2)s1 (centres unmarked),1.86
17,C=CCNCCCCOc1ccccc1.O=C(O)C(=O)O,5.06
18,O=P1(NCCCl)OCCCN1CCCl (centres unmarked),8.75
19,CN1CCN(Cc2cn(C)nc2-c2ccccc2F)CC1c1ccccc1 (centres unmarked),12.6
20,CC(C(=O)NCCc1ccc(F)cc1)N1CCN(Cc2ccccc2)CC1 (centres unmarked),5.75
21,O=[N+]([O-])c1ccc2[nH]c3c(c2c1)CCCC3O (centres unmarked),20.1
22,COc1ccc(CNC(=O)COC(=O)c2ccc3c(c2)OCCO3)cc1,17.1
23,O=C(Nc1cccc2c1CCCC2)c1ccco1,7.18

row,Structure (SMILES),"hERG current change (%, negative = inhibition) at 1uM [%]"
1,N#Cc1ccc(C2=NC(C(F)(F)F)(C(F)(F)F)c3c(n(Cc4ccco4)c(=O)[nH]c3=O)N2)cc1,5.53
2,Cn1[nH]c(-c2ccccc2)c(/C=N/O)c1=O,13.3
3,O=C(NCCN1CCOCC1)C1CCC(=O)N1Cc1ccccc1Cl (centres unmarked),4.73
4,C[n+]1c(-c2ccccc2)cc(CCCCc2cc(-c3ccccc3)[n+](C)c(-c3ccccc3)c2)cc1-c1ccccc1.[O-][Cl+3]([O-])([O-])[O-],9.12
5,CCOC(=O)N[C@H](Cc1c[nH]c2ccccc12)C(=O)NC1CC1,15.5
6,CCOc1ccccc1C(=O)Nc1ccc2c(c1)C(=O)NC2=O,20.9
7,CN(CC(=O)Nc1ccccc1Br)c1ncnc2sccc12,16.4
8,Cc1nc(SCC(=O)Nc2cc(S(=O)(=O)N3CCOCC3)ccc2Cl)nc(C)c1C,-20.3
9,CC(=O)NC(CC(=O)OCC(=O)N1CCN(S(=O)(=O)c2ccc(Cl)cc2)CC1)c1ccccc1 (centres unmarked),8.82
10,CCOC(=O)c1c(C)[nH]c(C)c1C(=O)COC(=O)c1cccc(C)c1O,6.31
11,CC(C)(O)c1[nH]c2cc(F)ccc2c1C(C)(C)O,5.5
12,O=S(=O)(c1ccccc1)c1nc(-c2ccco2)oc1NCc1cccnc1,8.49
13,COc1cccc(N2CCN(C3CC(=O)N(c4ccc(F)c(Cl)c4)C3=O)CC2)c1 (centres unmarked),5.76
14,Cc1ccccc1OCC(=O)OCC(=O)NCc1ccccc1,10.3
15,O=C(C1CC(c2ccccc2O)=NO1)N1CCCCC1 (centres unmarked),13.1
16,Cc1ccc(NC(=O)CN2C(=O)C3CC=CCC3C2=O)cc1S(=O)(=O)N1CCOCC1 (centres unmarked),9.81
17,CCn1cc(CNC(=O)c2cc(COc3ccc(F)cc3Cl)on2)cn1,-2.63
18,O=C(/C=C/N1CCOCC1)c1coc2ccccc12,5.07
19,COc1cc(C2SCC(=O)N2Cc2ccccc2)ccc1O (centres unmarked),11.9
20,COc1ccc(CCNC(=O)Cn2cccc2C(=O)c2ccccc2C)cc1OC,-8.44
21,Cc1c(O)nc(SC2CC(=O)N(c3cc(Cl)cc(Cl)c3)C2=O)[nH]c1=O (centres unmarked),16.5
22,COc1ccc(NC(=O)C2CCCN(S(=O)(=O)c3ccc4[nH]c(=O)ccc4c3)C2)cc1OC (centres unmarked),19.6
23,Cc1ccc(C(=O)Nn2cnnc2)cc1,11

row,Structure (SMILES),"hERG current change (%, negative = inhibition) at 1uM [%]"
1,CCOc1ccc(/C=N/N2C(C)CCCC2C)cc1OC (centres unmarked),10.2
2,CCc1ccc(CN(C)CC(=O)Nc2sccc2C#N)cc1,1.93
3,Cc1ccc(-c2nc(CS(=O)CC(=O)N3CCC4(CC3)OCCO4)c(C)o2)cc1 (centres unmarked),-3.05
4,O=C(C1CCC(CNS(=O)(=O)c2ccccc2)CC1)N1CCCCC1 (centres unmarked),8.49
5,O=C1CCCC/C1=C/NCc1ccccc1,14.5
6,CN(c1c[nH]c(=O)[nH]c1=O)C1CCCCC1,23.7
7,CNS(=O)(=O)c1ccc(NC(=O)c2cncc(Br)c2)cc1,8.93
8,O=C(COC(=O)c1ccc(Br)o1)NCc1cccs1,4.96
9,CCC1(c2ccc(F)cc2)NC(=O)N(CC(=O)NCc2ccc(F)cc2)C1=O (centres unmarked),-4.62
10,CCOc1ccc(C(=O)OCCN(CC)CC)cc1.Cl,-13.5
11,Cc1ccc(-c2nnn(CC(=O)N(CCO)C(C(=O)NC3CCCCC3)c3ccncc3)n2)o1 (centres unmarked),15
12,O=C(CN1C(=O)/C(=C2\SC(=S)N(CCS(=O)(=O)O)C2=O)c2ccccc21)Nc1cccc(Br)c1,-52.8
13,CS(=O)(=O)N1CCN(C(=O)CCC2CCCC2)CC1,14.9
14,c1ccc(-c2nc(-c3ccco3)n3ccccc23)cc1,12.2
15,NC(=O)CC(NC(=O)c1ccc(Br)cc1)c1ccc(NCc2ccc(F)cc2)c([N+](=O)[O-])c1 (centres unmarked),0.593
16,COCC(=O)NCCc1nc2ccccc2[nH]1,6.4
17,O=C(Nc1ccc(N2CCOCC2)c(Cl)c1)c1ccc(S(=O)(=O)N2CCOCC2)cc1,4.6
18,COC(=O)c1ccc(NC(=O)Nc2ccccc2F)cc1,11.7
19,O=[N+]([O-])c1cccc(N/N=C/c2cccc(O)c2O)c1,9.3
20,C=CCNC(=O)CC1Nc2c3ccccc3nc(=S)n2C1=O (centres unmarked),11.7
21,CC(C)(C)OC(=O)NNC(=O)c1cccs1,9.97
22,Fc1ccc(NC(=S)N2CCN(c3cccc(C(F)(F)F)c3)CC2)cc1,13.8
23,COc1ccccc1N1CCN(C(=O)c2sc3nc(C)nc(N4CCN(c5ccccn5)CC4)c3c2C)CC1,5.06

row,Structure (SMILES),"hERG current change (%, negative = inhibition) at 1uM [%]"
1,CCOC(=O)Cc1nc(-c2ccc(Cl)cc2)n[nH]1,14.3
2,Cc1cc(C)nc(SCC(=O)Nc2nonc2N)n1,20.3
3,O=C1/C(=C\c2ccc(Br)cc2)SC(=S)N1NS(=O)(=O)c1ccccc1,15.8
4,COc1ccc(CC(=O)N(C)C2CCCN(Cc3ccccc3F)C2)cc1OC (centres unmarked),9.59
5,CC(C)(C)c1ccc2c(c1)OC(C(=O)N/N=C\c1ccc(-c3cccc(C(=O)O)c3)o1)CO2 (centres unmarked),10.4
6,CC1(C)CC(=O)C(C2C3=C(CC(C)(C)CC3=O)Oc3ccccc32)=C(O)C1 (centres unmarked),12.1
7,COc1cc(SC)ccc1C(=O)Nc1ccc2c(c1)OCCO2,-7.3
8,CN(Cc1cccs1)C(=O)c1cccc(S(=O)(=O)N2CCCCCC2)c1,-9.79
9,COc1cccc(CN(C(=O)c2cccc(OC)c2)C2CCS(=O)(=O)C2)c1 (centres unmarked),2.78
10,Cc1cc(C)nc(NS(=O)(=O)c2ccc(NC(=O)COc3ccccc3F)cc2)n1,2.47
11,Nc1nsnc1C(=O)NCCO,18.3
12,CCOC(=O)c1ccc(S(=O)(=O)N2CCN(C(C)=O)CC2)cc1,-4.77
13,N#Cc1ccc(C2N=C(c3ccccc3)NO2)cc1 (centres unmarked),5.42
14,CCCCCOC(=O)C1=C(C)NC(=O)NC1c1ccc([N+](=O)[O-])cc1 (centres unmarked),19.1
15,CN(CC(=O)Nc1ccccc1Br)C(=O)CCc1nc2ccccc2c(=O)[nH]1,1.47
16,N#CCCCSc1ncccc1-c1nc2ccccc2[nH]1,-3.28
17,Cc1ccc(C(=O)O/N=C(\N)Cc2ccc([N+](=O)[O-])cc2)c(Cl)c1,3.35
18,CN(C)c1ccc2c(c1)OC(N)=C(C#N)C2c1cccc(F)c1 (centres unmarked),15.1
19,COc1ccc(N/N=C(/Oc2ccc([N+](=O)[O-])cc2)C(C)=O)cc1,-8.95
20,COc1cccc(CNC(=O)c2cccc(NC(=O)CC3SC(N4CCCCC4)=NC3=O)c2)c1 (centres unmarked),17.1

# Reference: PMC4336329 (PLoS ONE, 2015)
